Reference: the antibiotic and cytotoxicity screens of Wong et al. (2023)
Some of the results follow.

Tests used:
HSkMC = human skeletal muscle cells; test: cytotoxicity call (relative viability < 0.9); settings: 10 µM
HepG2 = test: cytotoxicity call (relative viability < 0.9); settings: 10 µM
S. aureus RN4220 = test: growth inhibition call (relative growth <= 0.2); settings: 50 µM

| SMILES | cytotoxicity call (HSkMC) | cytotoxicity call (HepG2) | growth inhibition call (S. aureus RN4220) |
| --- | --- | --- | --- |
| CCCCCCCCCCC(C(=O)O)C1(C(=O)O)CCC(=O)O1 (stereo unspecified) | inactive | inactive | inactive |
| Cc1ccc(S(=O)(=O)Nc2ccc3c(c2)C(=O)N([C@H](C)CO)C[C@H](C)[C@H](CN(C)Cc2ccccc2)OCCCC[C@H](C)O3)cc1 | inactive | inactive | inactive |
| O=C(CN1CCOCC1)N[C@H]1CC[C@@H](CCNC(=O)Nc2cc(F)ccc2F)O[C@H]1CO | inactive | inactive | inactive |
| Cc1ccc(S(=O)(=O)Nc2cccc3c2O[C@@H](CN(C)CC2CC2)[C@@H](C)CN([C@H](C)CO)C3=O)cc1 | inactive | inactive | inactive |
| CC(C)(Oc1ccc(C(=O)c2ccc(Cl)cc2)cc1)C(=O)O | inactive | inactive | inactive |
| C[C@H]1CC/C=C\[C@H]2O[C@@]34C=CCN(Cn5nnc6ccccc65)C(=O)[C@H]3N(CCO)C(=O)[C@@H]4[C@@H]2C(=O)O1 | inactive | inactive | inactive |
| NC(=O)c1ccc[n+](C2OC(COP(=O)([O-])OP(=O)(O)OCC3OC(n4cnc5c(N)ncnc54)C(O)C3O)C(O)C2O)c1 (stereo unspecified) | inactive | inactive | inactive |
| C[C@H]1CN([C@@H](C)CO)C(=O)Cc2cc(NC(=O)Cn3cnnn3)ccc2O[C@H]1CN(C)S(C)(=O)=O | inactive | inactive | inactive |
| c1ccc(-n2nnnc2CN2CCOCC2)cc1 | inactive | inactive | inactive |
| COc1ccc(NC(=O)Nc2ccc3c(c2)C(=O)N([C@H](C)CO)C[C@H](C)[C@@H](CN(C)CC2CCCCC2)O3)cc1 | inactive | inactive | inactive |
| CCCNC(=O)N1C[C@@H](C)[C@H](OC)CN(C)C(=O)c2ccc(NS(=O)(=O)CC(F)(F)F)cc2OC[C@H]1C | inactive | inactive | inactive |
| C[C@@H]1CN([C@@H](C)CO)C(=O)c2cccc(NC(=O)Nc3ccc(C(F)(F)F)cc3)c2O[C@H]1CN(C)Cc1ccc(C(=O)O)cc1 | inactive | inactive | inactive |
| Cc1ccc(S(=O)(=O)N(C)C[C@@H]2Oc3c(NC(=O)c4ccncc4)cccc3C(=O)N([C@@H](C)CO)C[C@@H]2C)cc1 | inactive | inactive | inactive |
| C[C@@H]1CN([C@H](C)CO)C(=O)Cc2cc(NS(=O)(=O)c3cn(C)cn3)ccc2O[C@H]1CN(C)CC1CC1 | inactive | inactive | inactive |
| CC[C@H]1CN(C)N1C(=O)[C@H]1CCCO1 | inactive | inactive | inactive |
| CCc1ccc(NC(=O)C2CCN(S(=O)(=O)c3c(C)[nH]c(=O)[nH]c3=O)CC2)cc1 | inactive | active | inactive |
| CN(C)C(CCOc1cccc2ccccc12)c1ccccc1.Cl (stereo unspecified) | inactive | active | inactive |
| COc1ccc(NC(=O)N(C)C[C@H]2Oc3ccc(NC(=O)Nc4cccc5ccccc45)cc3CC(=O)N([C@@H](C)CO)C[C@H]2C)cc1 | inactive | inactive | inactive |
| CC(C)NC(=O)N(C)C[C@@H]1Oc2ccc(NC(=O)CCC(F)(F)F)cc2C(=O)N([C@H](C)CO)C[C@@H]1C | inactive | inactive | inactive |

| SMILES | cytotoxicity call (HSkMC) | cytotoxicity call (HepG2) | growth inhibition call (S. aureus RN4220) |
| --- | --- | --- | --- |
| O=C(C[C@@H]1CC[C@@H]2[C@H](COC[C@@H](O)CN2C(=O)c2ccc3c(c2)OCO3)O1)NCCN1CCCCC1 | inactive | inactive | inactive |
| CC(C)c1nc(CN(C)C(=O)NC(C(=O)NC(Cc2ccccc2)CC(O)C(Cc2ccccc2)NC(=O)OCc2cncs2)C(C)C)cs1 (stereo unspecified) | inactive | inactive | inactive |
| C[C@@H]1CCCCO[C@H](CN(C)CC2CCCCC2)[C@H](C)CN([C@H](C)CO)C(=O)c2cc(NC(=O)c3ccccc3)ccc2O1 | inactive | active | inactive |
| COc1ccc(NC(=O)N(C)C[C@H]2Oc3ccc(NC(=O)C4CC4)cc3CC(=O)N([C@@H](C)CO)C[C@H]2C)cc1 | inactive | inactive | inactive |
| CCCNC(=O)N(C)C[C@H]1Oc2cc(C#Cc3cccc(F)c3)ccc2S(=O)(=O)N([C@H](C)CO)C[C@H]1C | inactive | inactive | inactive |
| O=C(NCCCN1CCOCC1)[C@@H]1[C@@H](CO)[C@@H]2Cn3c(cccc3=O)[C@H]1N2C(=O)C1CCCCC1 | inactive | inactive | inactive |
| O=C(C[C@@H]1CC[C@@H]2[C@H](COC[C@@H](O)CN2C(=O)Nc2ccc(F)cc2)O1)NCCCN1CCOCC1 | inactive | inactive | inactive |
| C[C@@H]1CN([C@@H](C)CO)C(=O)c2cc(NC(=O)c3ccncc3)ccc2O[C@@H](C)CCCCO[C@H]1CN(C)C(=O)Nc1ccc2c(c1)OCO2 | inactive | inactive | inactive |
| O=C(N1CCN(CCO)CC1)C(F)(F)F | inactive | inactive | inactive |
| Cc1cc(C(=O)Nc2cccc3c2O[C@@H](CN(C)Cc2ccc(Oc4ccccc4)cc2)[C@@H](C)CN([C@H](C)CO)C3=O)n(C)n1 | inactive | inactive | inactive |
| O=C(N[C@H]1CC[C@H](CCn2cc(C3(O)CCCC3)nn2)O[C@@H]1CO)C1CCOCC1 | inactive | inactive | inactive |
| COc1ccc(S(=O)(=O)Nc2ccc3c(c2)C(=O)N([C@H](C)CO)C[C@H](C)[C@@H](CN(C)C(=O)Nc2ccc(C(F)(F)F)cc2)OCCCC[C@H](C)O3)cc1 | inactive | inactive | inactive |
| C[C@@H]1CCCCO[C@H](CN(C)S(=O)(=O)c2ccc(F)cc2)[C@@H](C)CN([C@@H](C)CO)C(=O)c2cc(NC(=O)Nc3ccc4c(c3)OCO4)ccc2O1 | inactive | inactive | inactive |
| Cc1cc(C(=O)Nc2cccc3c2O[C@H](CN(C)Cc2ccccc2)[C@@H](C)CN([C@H](C)CO)C3=O)n(C)n1 | inactive | inactive | inactive |
| CN1CCN(C)C1=O | inactive | inactive | inactive |
| C[C@@H]1CN([C@@H](C)CO)C(=O)c2cc(NS(=O)(=O)c3ccc(F)cc3)ccc2O[C@@H]1CN(C)C(=O)Nc1ccc(C(F)(F)F)cc1 | inactive | inactive | inactive |
| COCC#Cc1ccc2c(c1)O[C@@H](CN(C)C(=O)COC)[C@@H](C)CN([C@H](C)CO)S2(=O)=O | inactive | inactive | inactive |
| C[C@H](CO)N1C[C@H](C)[C@H](CN(C)Cc2ccc(Cl)c(Cl)c2)Oc2ccc(NC(=O)C3CCCCC3)cc2C1=O | inactive | inactive | inactive |
| Fc1cccc(CSCc2c(F)cccc2Cl)c1 | inactive | inactive | inactive |

| SMILES | cytotoxicity call (HSkMC) | cytotoxicity call (HepG2) | growth inhibition call (S. aureus RN4220) |
| --- | --- | --- | --- |
| COc1ccc(S(=O)(=O)N(C)C[C@H]2Oc3c(NC(=O)Nc4c(C)noc4C)cccc3C(=O)N([C@@H](C)CO)C[C@H]2C)cc1 | inactive | inactive | inactive |
| CC(C)NC(=O)N(C)C[C@@H]1Oc2ccc(NS(=O)(=O)c3cn(C)cn3)cc2C(=O)N([C@H](C)CO)C[C@H]1C | inactive | inactive | inactive |
| Cl.c1ccc2c(c1)CCCC2C1=NCCN1 (stereo unspecified) | inactive | inactive | inactive |
| C[C@@H]1CN([C@H](C)CO)C(=O)Cc2cc(NS(=O)(=O)c3ccc(F)cc3)ccc2O[C@H]1CN(C)S(=O)(=O)c1cn(C)cn1 | inactive | inactive | inactive |
| N[C@H]1CC[C@H](CCn2cc(-c3cccc(F)c3)nn2)O[C@@H]1CO | inactive | inactive | inactive |
| C[C@@H]1CN([C@@H](C)CO)C(=O)c2cccc(NS(=O)(=O)c3ccc(F)cc3)c2O[C@H]1CN(C)CC1CC1 | inactive | inactive | inactive |
| O=C(NCCCN1CCOCC1)[C@H]1[C@@H]2C=C[C@@]3(CN(Cc4cccs4)C(=O)[C@@H]13)O2 | inactive | inactive | inactive |
| C[C@@H]1CCCCO[C@H](CN(C)C(=O)Nc2ccc(F)cc2)[C@H](C)CN([C@H](C)CO)C(=O)c2cc(NS(=O)(=O)c3ccc(Cl)cc3)ccc2O1 | inactive | inactive | inactive |
| Cc1noc(C)c1NC(=O)N(C)C[C@H]1OCCCC[C@@H](C)Oc2ccc(NC(=O)Nc3ccc(F)cc3)cc2C(=O)N([C@H](C)CO)C[C@@H]1C | inactive | inactive | inactive |
| C[C@@H]1CN([C@@H](C)CO)C(=O)Cc2cc(NC(=O)Nc3cccc4ccccc34)ccc2O[C@@H]1CN(C)S(=O)(=O)c1cccs1 | inactive | active | inactive |
| C[C@@H]1CCCCO[C@H](CN(C)C(=O)CCC(F)(F)F)[C@@H](C)CN([C@H](C)CO)C(=O)c2cc(NC(=O)Cc3ccccc3)ccc2O1 | inactive | inactive | inactive |
| Cc1cc(C(=O)Nc2cccc3c2O[C@H](CN(C)Cc2ccc4c(c2)OCO4)[C@H](C)CN([C@H](C)CO)C3=O)n(C)n1 | inactive | inactive | inactive |
| C[C@H](CO)N1C[C@H](C)[C@@H](CN(C)C(=O)Cc2ccccn2)Oc2ncc(-c3cccc(C(=O)N(C)C)c3)cc2C1=O | inactive | inactive | inactive |
| C[C@@H]1CN([C@@H](C)CO)C(=O)c2cc(NC(=O)Nc3ccc4c(c3)OCO4)ccc2O[C@@H](C)CCCCO[C@H]1CN(C)C(=O)Nc1ccccc1 | inactive | inactive | inactive |
| C[C@H](CO)N1C[C@H](C)[C@H](CN(C)Cc2ccc3c(c2)OCO3)OCCCC[C@H](C)Oc2ccc(NS(=O)(=O)c3cccs3)cc2C1=O | inactive | inactive | inactive |
| C[C@@H]1CN([C@@H](C)CO)C(=O)c2cc(NC(=O)C3CC3)ccc2O[C@@H]1CN(C)Cc1ccc(C(=O)O)cc1 | inactive | inactive | inactive |
| O=S(=O)(N1CCOCC1)N1CCCN(S(=O)(=O)N2CCOCC2)CC1 | inactive | inactive | inactive |
| COc1ccc(S(=O)(=O)N[C@@H](CNc2nc(C)nc(N3CCC(c4ccc5c(n4)NCCC5)CC3)c2C)C(=O)O)cc1 | inactive | active | inactive |
| CO[C@H](CN(C)C(=O)c1ccccc1F)[C@H](C)CN([C@@H](C)CO)S(=O)(=O)c1ccc(Cl)cc1 | inactive | inactive | inactive |
